The campaign covered roughly 310,000 compounds. About 2,200 (0.71%) showed an effect of 50% or more. The effect is printed as a negative number. The list shows a part of the results.
target: human ether-à-go-go-related gene (hERG) potassium channel (human, UniProt Q12809); assay: primary screen, population patch clamp on CHO cells stably expressing hERG
Sequence (Q12809 whole entry, looked up): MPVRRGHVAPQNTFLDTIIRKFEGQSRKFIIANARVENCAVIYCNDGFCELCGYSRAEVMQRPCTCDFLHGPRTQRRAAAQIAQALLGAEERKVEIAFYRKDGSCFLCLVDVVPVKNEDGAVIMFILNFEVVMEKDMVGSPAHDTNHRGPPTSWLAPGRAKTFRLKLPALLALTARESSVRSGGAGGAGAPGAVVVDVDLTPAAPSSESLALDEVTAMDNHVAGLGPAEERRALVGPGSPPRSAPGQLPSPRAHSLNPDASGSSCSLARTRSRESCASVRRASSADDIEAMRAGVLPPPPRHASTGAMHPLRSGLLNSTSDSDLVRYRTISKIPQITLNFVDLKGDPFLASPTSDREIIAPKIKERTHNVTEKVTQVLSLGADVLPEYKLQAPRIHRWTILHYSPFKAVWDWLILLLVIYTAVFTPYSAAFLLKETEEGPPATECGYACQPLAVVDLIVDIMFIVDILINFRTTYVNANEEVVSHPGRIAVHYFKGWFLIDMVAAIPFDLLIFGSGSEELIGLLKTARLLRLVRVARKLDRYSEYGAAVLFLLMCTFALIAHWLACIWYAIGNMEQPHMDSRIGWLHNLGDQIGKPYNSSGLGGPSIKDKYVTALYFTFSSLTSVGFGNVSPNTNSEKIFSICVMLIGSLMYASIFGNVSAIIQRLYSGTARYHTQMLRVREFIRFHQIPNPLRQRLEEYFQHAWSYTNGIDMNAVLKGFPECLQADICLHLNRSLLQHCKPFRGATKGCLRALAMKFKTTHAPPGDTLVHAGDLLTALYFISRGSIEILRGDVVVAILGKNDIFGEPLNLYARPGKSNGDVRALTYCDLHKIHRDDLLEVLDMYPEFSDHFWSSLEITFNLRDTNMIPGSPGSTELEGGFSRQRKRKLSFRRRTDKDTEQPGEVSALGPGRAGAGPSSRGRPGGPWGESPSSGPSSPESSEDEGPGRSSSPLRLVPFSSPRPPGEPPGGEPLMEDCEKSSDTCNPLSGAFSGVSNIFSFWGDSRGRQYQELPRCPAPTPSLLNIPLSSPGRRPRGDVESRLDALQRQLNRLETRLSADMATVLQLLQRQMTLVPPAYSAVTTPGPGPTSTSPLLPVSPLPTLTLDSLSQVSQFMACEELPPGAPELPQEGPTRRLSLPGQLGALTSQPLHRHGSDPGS

| SMILES | hERG current change (%, negative = inhibition) at 1uM [%] |
| --- | --- |
| O=C(c1ccc(Cl)c(Cl)c1)N1CCN(c2ccccn2)CC1 | 1.45 |
| O=C(O)c1nn(-c2ccccc2)nc1-c1nn(-c2ccccc2)nc1C(=O)O | 12.5 |
| COCCNC(=O)c1onc(CSc2cccc(OC)c2)c1C(=O)NCCOC | 2.62 |
| COc1cc(OC)cc(C(=O)NNC(=O)Cc2ccc(OC)c(S(=O)(=O)N3CCOCC3)c2)c1 | 7.41 |
| COCc1nnc(NC(=O)c2ccc(S(=O)(=O)N(C)C3CCCCC3)cc2)o1 | 6.49 |
| CCOc1cc(N2CCOCC2)c(OCC)cc1NC(=O)c1ccc(OC)cc1 | 9.63 |
| Cc1ccnn1CC(=O)N/N=C/c1c[nH]c2ccccc12 | 8.86 |
| Nc1ccc2nc3c(=O)[nH]c(=S)[nH]c3nc2c1 | 14.7 |
| CCOP(=O)(OCC)C(NC(=O)C(F)(F)F)c1ccccc1 (stereo not drawn) | 3.32 |
| COc1ccc(C(=O)NCCS(=O)(=O)N2CCc3ccccc3C2)cc1OC | 9.04 |
| COC(=O)C1C2C=CC3(CN(Cc4cccs4)C(=O)C13)O2 (stereo not drawn) | 4.13 |
| O=c1cc(-c2ccccc2)oc2cc(OCc3ccccc3)cc(O)c12 | 15.5 |
| CCCc1cc(C(N)=O)c(NC(=O)C2CCCO2)s1 (stereo not drawn) | -12 |
| CC(=O)Oc1ccccc1C1C[C@]2(C)CC(=O)NC2N1C(C)=O (stereo partly drawn) | 15.9 |
| O=C(O)c1ccccc1-c1ccc(/C=C2\SC(=O)N(c3ccccc3)C2=O)o1 | 11.3 |
| CCc1ccc(CN2CCC(n3nccc3NC(=O)c3ccccc3)CC2)o1 | -6.11 |
| Cc1ccc(C(=O)CCC(=O)N2CCC(C(N)=O)CC2)cc1 | 10.5 |
| CCc1nnc(NC(=O)CSc2nnc(CSc3nc(C)cc(C)n3)o2)s1 | 10.6 |
| CN1C(N)=NC(=O)/C1=C/c1ccc(F)cc1 | 13.8 |
| COC(=O)Cc1ccc(NC(=O)c2ccc3c(c2)C(=O)N(CC2CCCO2)C3=O)cc1 (stereo not drawn) | -0.497 |
| C=CCn1c(NC(=O)c2ccc(C)cc2)c(C#N)sc1=N | 7.94 |
| CCCCC(=O)NC(=S)Nc1c(C)cc(Br)cc1C | -6.59 |
| O=C(CCCC(=O)c1ccccc1)Nc1ccc(O)cc1 | 7.8 |

| SMILES | hERG current change (%, negative = inhibition) at 1uM [%] |
| --- | --- |
| CCN(CC)c1ccc(NC(=O)CN2CCN(CC(=O)Nc3ccccc3F)CC2)cc1 | -13 |
| CC(C)c1cc(NCCOCCO)n2c(nc3ccccc32)c1C#N | -0.784 |
| CCSc1nc(C)cc(Oc2ccc(=O)n(C)n2)n1 | 9.12 |
| O=C(Cc1ccccc1)c1c[nH]c(C(=O)NCCCn2ccnc2)c1 | -1.44 |
| Cc1ccc(S(=O)(=O)CC(=O)N2CCN(c3ccccc3F)CC2)cc1 | -5.25 |
| CCOC(=O)N1CCN(S(=O)(=O)c2ccc(F)c(C(=O)Nc3cc(C)cc(C)c3)c2)CC1 | 5.99 |
| O=C(NCC1CCCO1)c1ccc(COc2ccc(Br)cc2)cc1 (stereo not drawn) | -5.4 |
| CCN(CC)CC#CC(C)(C)OC(C)=O | 4.46 |
| COc1cc2c(C(=O)N3CCN(C)CC3)c(C)n(-c3ccccc3)c2cc1Br | 8.85 |
| Cc1ccc(S(C)(=O)=O)cc1C(=O)N1CC(C(N)=O)Oc2ccccc21 (stereo not drawn) | 14 |
| Cc1nn(CC(=O)c2ccc(Br)s2)c(C)c1[N+](=O)[O-] | 6.75 |
| COc1ccc(OC)c(C2C3CN(C(C)C)CC=C3C(C#N)=C(N)C2(C#N)C#N)c1 (stereo not drawn) | 5.92 |
| COc1ccc(OC)c(C2=Nn3c(nnc3-c3cc(OC)c(OC)c(OC)c3)SC2)c1 | -3.48 |
| CC(C)CNC(=O)NC(=O)COc1ncnc2sccc12 | 11 |
| COc1ccc(C2NC(=O)Cc3cc(OC)c(OC)cc32)cc1OC (stereo not drawn) | 5.57 |
| CC(C)C(C(=O)NC1CCCC1)N(CC1CCCO1)C(=O)CNS(=O)(=O)c1ccccc1 (stereo not drawn) | 11.4 |
| Cc1ncc(CN2CCCC(C(=O)Nc3ccc(-c4ccco4)cc3)C2)cn1 (stereo not drawn) | 2.36 |
| O=C(NCc1ccccc1)N1CCOCC1 | -5.83 |
| Cc1nnc(NC(=O)CCn2c(=O)oc3ccc(Cl)cc32)s1 | 13.6 |
| c1csc(Cn2nnnc2CN2CCN(c3nc4ccccc4s3)CC2)c1 | -7.1 |
| O=C(CN1CCN(S(=O)(=O)c2ccccc2)CC1)N1CCc2ccccc21 | 14.6 |
| CCc1cc2c3c(c1)C(C)CC(C)(C)N3C(=O)C2=O (stereo not drawn) | -1.52 |

Source: article PMC4336329 (PLoS ONE, 2015)
